The supplement of paper PMC12217912
The list shows a part of the results. The full chains were built here from the parent and the listed change. Inactive controls read about 0.05.

B1: TEV protease; numbered along this chain (parent)
chain: MGESLFKGPRDYNPISSSICHLTNESDGHTTSLYGIGFGPFIITNKHLFRRNNGTLVVQSLHGVFKVKDTTTLQQHLVDGRDMIIIRMPKDFPPFPQKLKFREPQREERICLVTTNFQTKSMSSMVSDTSCTFPSGDGIFWKHWIQTKDGQCGSPLVSTRDGFIVGIHSASNFTNTNNYFTSVPKNFMELLTNQEAQQWVSGWRLNADSVLWGGHKVFMVKPEEPFQPVKEATQL

Variants of: B1
Assay: raw area under fraction-flipped curve 0-4 h after induction (AUC4h, not background-subtracted), DNA-recorder readout of cleavage of the substrate (dimensionless); higher = more cleavage of the substrate by the protease variant
Settings: temperature: 34 °C; time window: 0-4 h after rhamnose induction
Experimental: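 In vivo DNA recorder in E. coli TOP10(DE3) ΔrhaA at 34 °C. Each TEVp single-site mutant (parent TEVp 0) is paired with a single-site variant of the 7-mer TEVs (canonical ENLYFQ|S). The substrate sits between flexible linkers in a Bxb1-sfGFP-TEVs-SsrA fusion, so cleavage stabilises Bxb1 and speeds flipping of a recombination array, read by NGS. The value is the raw area under the fraction-flipped curve over 0-4 h after rhamnose induction (AUC4h), with ≥20 reads per time point. It is not background-subtracted; inactive controls average about 0.047.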
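Note: Bxb1 expression induced with 0.2% (w/v) L-rhamnose at OD600 near 0.5, cultures sampled hourly, flipped fraction per protease–substrate barcode pair counted by paired-end Illumina sequencing.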

Variant | area with substrate ENCYFQS | area with substrate ENDYFQS | area with substrate ENEYFQS | area with substrate ENGYFQS | area with substrate ENHYFQS | area with substrate ENMYFQS | area with substrate ENNYFQS | area with substrate ENPYFQS | area with substrate ENQYFQS | area with substrate ENRYFQS | area with substrate ENSYFQS | area with substrate ENTYFQS | area with substrate ENVYFQS | area with substrate ENWYFQS | area with substrate ENYYFQS | area with substrate ENFYFQS | area with substrate ENIYFQS | area with substrate ENKYFQS
C20I | 0.0704 | 0.0671 | 0.065 | 0.0562 | 0.0312 | 0.0755 | 0.061 | 0.0571 | 0.0598 | 0.055 | 0.0533 | 0.0757 | 0.091 | 0.0609 | 0.0926 |  |  | 
D27H | 0.0807 | 0.0636 |  |  |  |  |  | 0.0556 | 0.0636 |  | 0.0538 | 0.0676 |  |  | 0.0574 | 0.0538 |  | 
G35F | 0.0459 |  |  | 0.0559 | 0.0157 |  | 0.0505 |  |  |  |  |  |  | 0.0343 | 0.0398 |  |  | 
F38S | 0.0645 | 0.0617 | 0.0512 | 0.043 | 0.0528 |  |  |  | 0.0566 | 0.0634 | 0.0561 | 0.0534 | 0.0647 | 0.0367 | 0.0501 | 0.0547 | 0.08 | 
N53P | 0.0473 | 0.0622 | 0.0555 | 0.0509 |  | 0.0658 |  |  | 0.0643 | 0.0581 | 0.0673 | 0.0577 |  |  | 0.0642 | 0.0607 | 0.0896 | 0.0314
T55P | 0.0463 | 0.0518 | 0.0595 |  | 0.05 |  | 0.0573 | 0.0641 | 0.0605 |  | 0.0511 | 0.0501 | 0.0557 | 0.0611 | 0.0458 |  |  | 
L56N | 0.0478 | 0.04 |  |  |  |  | 0.0337 | 0.0415 | 0.03 | 0.0509 | 0.0388 | 0.0486 | 0.0598 |  |  | 0.055 | 0.0531 | 0.0373
H62Q | 0.0598 | 0.0636 |  | 0.0638 |  |  | 0.06 | 0.0575 |  | 0.0497 | 0.0532 |  |  |  |  | 0.0622 |  | 
I84L | 0.0663 | 0.053 |  | 0.0632 | 0.0687 | 0.0927 | 0.0261 | 0.0703 | 0.0625 | 0.0713 | 0.063 |  |  | 0.0572 | 0.0336 | 0.0684 | 0.0998 | 0.0728
I85E | 0.0327 | 0.0467 |  | 0.0472 | 0.0656 |  | 0.0275 |  | 0.0534 |  |  |  | 0.0299 |  |  |  |  | 
I85Q | 0.0575 |  | 0.0509 |  |  |  | 0.0528 | 0.045 | 0.0676 |  | 0.0619 | 0.0544 |  | 0.0385 |  |  | 0.0499 | 0.0575
I86H | 0.049 | 0.0428 | 0.0342 |  |  | 0.043 |  |  | 0.0114 |  | 0.0376 | 0.034 | 0.0431 |  |  |  | 0.0326 | 
I86M | 0.0655 | 0.054 |  | 0.0577 | 0.0628 |  | 0.0586 | 0.0471 |  |  | 0.0526 | 0.129 | 0.0568 |  |  | 0.0651 |  | 
R87M | 0.0799 |  |  |  |  | 0.0881 |  | 0.0558 | 0.0477 |  | 0.0368 | 0.053 |  |  | 0.101 |  |  | 
P94H | 0.0702 |  |  | 0.0479 | 0.0537 | 0.0951 |  |  |  | 0.0619 | 0.105 |  |  |  |  | 0.0706 |  | 0.0574
P96D | 0.0663 | 0.0621 |  |  |  |  | 0.0601 |  | 0.0567 |  | 0.143 | 0.0404 | 0.085 |  |  | 0.0526 |  | 0.0535
F101M | 0.0607 | 0.0586 | 0.0569 |  |  | 0.0678 | 0.0523 |  | 0.0597 | 0.0505 | 0.0714 | 0.0766 | 0.0573 |  |  | 0.0388 | 0.0878 | 0.0435

Variant | area with substrate ENCYFQS | area with substrate ENDYFQS | area with substrate ENEYFQS | area with substrate ENGYFQS | area with substrate ENHYFQS | area with substrate ENMYFQS | area with substrate ENNYFQS | area with substrate ENPYFQS | area with substrate ENQYFQS | area with substrate ENRYFQS | area with substrate ENSYFQS | area with substrate ENTYFQS | area with substrate ENVYFQS | area with substrate ENWYFQS | area with substrate ENYYFQS | area with substrate ENFYFQS | area with substrate ENIYFQS | area with substrate ENKYFQS
F101P | 0.0533 | 0.0408 | 0.0363 | 0.0432 | 0.0447 |  |  |  | 0.0359 |  | 0.0404 | 0.053 | 0.0487 |  | 0.0412 | 0.0507 | 0.0607 | 
R109D | 0.0684 |  | 0.0609 | 0.0569 | 0.0766 |  | 0.0625 | 0.0705 | 0.0674 |  | 0.0623 |  | 0.0697 |  |  |  |  | 
R109M | 0.06 | 0.055 |  | 0.0803 | 0.0671 |  | 0.0804 | 0.0473 | 0.0606 | 0.0703 | 0.068 |  |  |  |  |  |  | 
N116G | 0.079 | 0.0588 |  | 0.0691 |  |  |  |  | 0.0613 |  | 0.0562 | 0.0745 | 0.0803 |  |  | 0.0646 | 0.158 | 0.0521
F117Y | 0.0693 | 0.0605 | 0.0475 | 0.0458 |  | 0.0454 | 0.0574 |  |  | 0.0137 | 0.0516 | 0.0563 |  | 0.0491 |  | 0.0629 |  | 
T119N | 0.0691 | 0.0449 | 0.0671 |  | 0.0698 |  | 0.0491 |  | 0.0391 | 0.0483 | 0.0592 |  | 0.0773 | 0.0026 |  |  | 0.124 | 
V126D | 0.0693 |  |  | 0.0519 |  |  |  |  | 0.0622 | 0.0419 | 0.0608 |  |  | 0.0352 | 0.0584 |  | 0.103 | 0.0597
S127R | 0.0374 |  | 0.0922 |  | 0.0579 |  |  | 0.0602 | 0.061 | 0.0528 | 0.07 | 0.0798 | 0.0963 |  |  | 0.0689 | 0.107 | 0.0165
T129A | 0.0228 | 0.0404 | 0.0627 | 0.06 |  |  |  |  |  | 0.0679 | 0.0814 | 0.0827 |  |  |  | 0.0588 | 0.0876 | 
S130F | 0.0672 | 0.0461 |  | 0.0452 | 0.0682 |  | 0.051 |  | 0.059 |  | 0.0662 | 0.0533 |  | 0.0643 |  |  |  | 
C131A | 0.0629 |  |  |  |  |  |  |  |  |  | 0.0678 |  |  |  |  | 0.0647 |  | 
P134A | 0.0676 |  | 0.0666 | 0.0393 |  |  | 0.0676 |  |  |  | 0.0593 |  | 0.0777 |  |  |  | 0.102 | 
P134F | 0.0559 | 0.0569 | 0.0355 | 0.0443 | 0.0787 |  | 0.0606 |  |  | 0.0688 | 0.072 |  |  |  |  | 0.0517 |  | 
P134M | 0.036 | 0.0802 | 0.0637 |  | 0.0565 | 0.0291 |  |  | 0.0645 | 0.0582 | 0.0588 | 0.0497 | 0.065 |  |  | 0.0813 | 0.0974 | 
G136I | 0.0745 | 0.0555 | 0.063 |  | 0.0673 |  |  |  | 0.062 |  | 0.0617 |  |  |  |  |  |  | 0.0662
D137G | 0.063 | 0.0702 | 0.0553 | 0.0755 | 0.0634 | 0.0533 | 0.0775 | 0.0612 | 0.0546 | 0.0456 | 0.0661 | 0.0515 | 0.0825 | 0.0578 | 0.058 | 0.0645 | 0.0868 | 0.0591
I139K | 0.051 | 0.0362 | 0.0513 | 0.0634 | 0.065 | 0.0644 | 0.0586 |  |  | 0.0561 | 0.0585 |  |  |  |  |  | 0.121 | 
